Assay results reported in article PMC6602471.
The other results are listed elsewhere or left out. At the low end of the ranking, values are background and their order means little.

Target: T1, ELK1 (UniProt P19419)
T1 sequence: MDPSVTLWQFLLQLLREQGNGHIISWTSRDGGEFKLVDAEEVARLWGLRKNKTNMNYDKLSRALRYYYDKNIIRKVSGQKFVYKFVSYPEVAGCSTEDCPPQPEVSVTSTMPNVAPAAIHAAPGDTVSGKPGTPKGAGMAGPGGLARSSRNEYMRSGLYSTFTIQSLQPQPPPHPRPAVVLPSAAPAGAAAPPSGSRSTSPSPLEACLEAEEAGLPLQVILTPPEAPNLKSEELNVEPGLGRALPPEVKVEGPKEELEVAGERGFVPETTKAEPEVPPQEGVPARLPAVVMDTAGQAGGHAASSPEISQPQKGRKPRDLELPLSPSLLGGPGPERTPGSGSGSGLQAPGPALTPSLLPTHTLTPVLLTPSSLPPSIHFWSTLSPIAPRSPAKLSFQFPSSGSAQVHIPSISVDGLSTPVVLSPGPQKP
Test: custom PBM
Conditions: custom protein-binding microarray; buffer, salt, pH and temperature not stated; high values mean tight binding; double strand, one strand shown

Row | Sequence | binding signal (log fluorescence intensity)
1 | CACAATTTTTACAGTCATGTAGCACGCGTAACTCCTGTCTTGATTCGCTTGACGCTGCTG | 8.87
2 | TAAAGGGAAGACGGGTGTGGTAGTTCCGGGTATTAAGTCTTGATTCGCTTGACGCTGCTG | 11.2
3 | CGGAAGTGTCCTAAACGTCGGATATCCGGTTCTTCTGTCTTGATTCGCTTGACGCTGCTG | 12.4
4 | AGTCGGGTAAGGGAATGTAGATCACGTGAATGAAAAGTCTTGATTCGCTTGACGCTGCTG | 8.83
5 | TACTGACTTCTATATGCGAATGCACATGAATAGACCGTCTTGATTCGCTTGACGCTGCTG | 8.96
6 | TAAAGGGAAGACGGTTGTGGTAGTTCCGGGTATTAGGTCTTGATTCGCTTGACGCTGCTG | 11.3
7 | CGGAAGTGTCGTAAACGTCGGATATCCGTTTCTTCTGTCTTGATTCGCTTGACGCTGCTG | 11.5
8 | CTGGGACTTGACCCAACTCTGCCACGTGGGTGGTTTGTCTTGATTCGCTTGACGCTGCTG | 8.94
9 | GGAAAAAGGCCCAGGGTAACACCCGAAGTGGGCTTAGTCTTGATTCGCTTGACGCTGCTG | 8.95
10 | TACTGACTTATATATGCGTATGCACATGAATAGACCGTCTTGATTCGCTTGACGCTGCTG | 8.7
11 | TCCGGCTACCAGCTCCACCCACTTCAGACCTTGTAGGTCTTGATTCGCTTGACGCTGCTG | 8.94
12 | CACAATTTTTACAGCAATGTAGCACGCGTAACTCCTGTCTTGATTCGCTTGACGCTGCTG | 8.93
13 | CAGCATAGGACGTCTTCCCTGAAGCAATTGATAACCGTCTTGATTCGCTTGACGCTGCTG | 8.91
14 | GGAAAAGGGCCCAGGGTAACACCGGAAGTGGGCTTAGTCTTGATTCGCTTGACGCTGCTG | 10.8
15 | GCTGCTGCGGTACATACCCCACCGGATGTGACCCCGGTCTTGATTCGCTTGACGCTGCTG | 10.3
16 | TCCGGCTACAAGCTCCACCCACTTCAGGCCTTGTAGGTCTTGATTCGCTTGACGCTGCTG | 8.93
17 | GGAAAAAGGCCCAGGGTAACCCCGGAAGTGGGCTTAGTCTTGATTCGCTTGACGCTGCTG | 10.5
18 | CGGAAGTCTCGTAAACGTCGGATATCCGGTTCTTCTGTCTTGATTCGCTTGACGCTGCTG | 12
19 | CGGGGACTTGACCCAACTCTGCCACGTGGGTCGTTTGTCTTGATTCGCTTGACGCTGCTG | 8.96
20 | TGTCGGGTAAGGGAATGTAGATCACGTGAATGATAAGTCTTGATTCGCTTGACGCTGCTG | 9.11

Row | Sequence | binding signal (log fluorescence intensity)
21 | TCCGGCTACCAGCTCCACCCACTTCAGTCCTTGTAGGTCTTGATTCGCTTGACGCTGCTG | 9.06
22 | CGCAAGTGTCGTAAACGTCGGATATCCGGTTCTTCTGTCTTGATTCGCTTGACGCTGCTG | 12.6
23 | CTGGGACTTGACCCAACTCTGCCATGTGGGTCGTTTGTCTTGATTCGCTTGACGCTGCTG | 8.78
24 | GTGTATAGGATCCCAGCCAACACACGTGTTAAAATGGTCTTGATTCGCTTGACGCTGCTG | 8.95
25 | CGGAAGTGTCGTAAGCGTCGGATATCCGGTTCTTCTGTCTTGATTCGCTTGACGCTGCTG | 12.4
26 | TACTGACTTATATATGCGAATGCATATGAATAGACCGTCTTGATTCGCTTGACGCTGCTG | 8.91
27 | CACAATTTTTACAGTAATGTGGCACGCGTAACTCCTGTCTTGATTCGCTTGACGCTGCTG | 8.9
28 | TACTGACTTATATATGCGAATGCACATGAATAGACCGTCTTGATTCGCTTGACGCTGCTG | 8.91
29 | TACTGACTAATATATGCGAATGCACATGAATAGACCGTCTTGATTCGCTTGACGCTGCTG | 8.92
30 | TCCGGCTACCAGCTCCACCCACTTCAGGCCTTGGAGGTCTTGATTCGCTTGACGCTGCTG | 8.82
31 | CGGAAGTGTCGTAAACGTCGGATATCCGGTTCTTCTGTCTTGATTCGCTTGACGCTGCTG | 12.4
32 | TGTCGGGTAAGGGAATGTAGATCACGTGCATGAAAAGTCTTGATTCGCTTGACGCTGCTG | 9.02
33 | TACTGACTTATATATTCGAATGCACATGAATAGACCGTCTTGATTCGCTTGACGCTGCTG | 8.77
34 | GTGTATATGATCCCATCCAACACACGTGTTAAAATGGTCTTGATTCGCTTGACGCTGCTG | 9.02
35 | GATTAATTTCTGCCCTTATTGGCACGTGCCATAACAGTCTTGATTCGCTTGACGCTGCTG | 8.85
36 | CTGGGACTTGACCCAACTCTGCCACGTGGGTAGTTTGTCTTGATTCGCTTGACGCTGCTG | 8.8
37 | TGTCGGGTAAGGGAATGTAGATCACGGGAATGAAAAGTCTTGATTCGCTTGACGCTGCTG | 8.9
38 | GTGTATAGGATCCCATCCAAAACACGTGTTAAAATGGTCTTGATTCGCTTGACGCTGCTG | 8.87
39 | CACAATTTTTACAGTAATGTAGCACGCGTAACTTCTGTCTTGATTCGCTTGACGCTGCTG | 8.64
40 | GCTGCTGCGGTGCATACCCCACCGGATGTGACACCGGTCTTGATTCGCTTGACGCTGCTG | 10.2
